Experimental data: the supplement of paper PMC8728848
Some of the results follow.

Experiments:
Test in all cases: glycan array binding signal (z-score within array); higher = stronger binding
Conditions in all cases: glycan notation: IUPAC condensed, linker removed
[1] = molecular target: Gal(b1-3)GlcNAc6S
How it was run: (§1)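 Arrays were curated from the Consortium for Functional Glycomics database, 3228 in total, and kept only where the protein sequence was available. Binding is expressed as a within-array Z-score. This score was averaged across arrays of the same protein sequence at different concentrations or buffers and across linkers, and negative values can be read as non-binding.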

[2] = molecular target: Gal(b1-3)[Fuc(a1-4)]GlcNAc
How it was run: as §1

[3] = molecular target: Gal(b1-3)[Fuc(a1-4)]GlcNAc(b1-2)Man
How it was run: as §1

[4] = molecular target: Gal(b1-3)[Fuc(a1-4)]GlcNAc(b1-2)Man(a1-3)[Gal(b1-3)[Fuc(a1-4)]GlcNAc(b1-2)Man(a1-6)]Man(b1-4)GlcNAc(b1-4)[Fuc(a1-6)]GlcNAc
How it was run: as §1

[5] = molecular target: Gal(b1-3)[Fuc(a1-4)]GlcNAc(b1-3)Gal(b1-3)[Fuc(a1-4)]GlcNAc
How it was run: as §1

[6] = molecular target: Gal(b1-3)[Fuc(a1-4)]GlcNAc(b1-3)Gal(b1-4)GlcNAc
How it was run: as §1

[7] = molecular target: Gal(b1-3)[Fuc(a1-4)]GlcNAc(b1-3)Gal(b1-4)[Fuc(a1-3)]GlcNAc
How it was run: as §1

[8] = molecular target: Gal(b1-3)[Fuc(a1-4)]GlcNAc(b1-6)GalNAc
How it was run: as §1

[9] = molecular target: Gal(b1-3)[GlcNAc(b1-6)]GalNAc
How it was run: as §1

[10] = molecular target: Gal(b1-3)[Neu5Ac(a2-6)]GalNAc
How it was run: as §1

[11] = molecular target: Gal(b1-3)[Neu5Ac(a2-6)]GlcNAc(b1-4)Gal(b1-4)Glc
How it was run: as §1

[12] = molecular target: Gal(b1-3)[Neu5Ac(b2-6)]GalNAc
How it was run: as §1

[13] = molecular target: Gal(b1-4)Gal
How it was run: as §1

[14] = molecular target: Gal(b1-4)GalNAc(a1-3)[Fuc(a1-2)]Gal(b1-4)GlcNAc
How it was run: as §1

[15] = molecular target: Gal(b1-4)GalNAc(b1-3)[Fuc(a1-2)]Gal(b1-4)GlcNAc
How it was run: as §1

[16] = molecular target: Gal(b1-4)Glc
How it was run: as §1

[17] = molecular target: Gal(b1-4)Glc6S
How it was run: as §1

[18] = molecular target: Gal(b1-4)GlcNAc
How it was run: as §1

[19] = molecular target: Gal(b1-4)GlcNAc(a1-6)Gal(b1-4)GlcNAc
How it was run: as §1

[20] = molecular target: Gal(b1-4)GlcNAc(b1-2)Man
How it was run: as §1

[21] = molecular target: Gal(b1-4)GlcNAc(b1-2)Man(a1-3)Man(b1-4)GlcNAc(b1-4)GlcNAc
How it was run: as §1

[22] = molecular target: Gal(b1-4)GlcNAc(b1-2)Man(a1-3)[Gal(b1-4)GlcNAc(b1-2)Man(a1-6)]Man(b1-4)GlcNAc(b1-4)GlcNAc
How it was run: as §1

[23] = molecular target: Gal(b1-4)GlcNAc(b1-2)Man(a1-3)[Gal(b1-4)GlcNAc(b1-2)Man(a1-6)]Man(b1-4)GlcNAc(b1-4)[Fuc(a1-6)]GlcNAc
How it was run: as §1

[24] = molecular target: Gal(b1-4)GlcNAc(b1-2)Man(a1-3)[Gal(b1-4)GlcNAc(b1-2)Man(a1-6)][Gal(b1-4)GlcNAc(b1-4)]Man(b1-4)GlcNAc(b1-4)[Fuc(a1-6)]GlcNAc
How it was run: as §1

[25] = molecular target: Gal(b1-4)GlcNAc(b1-2)Man(a1-3)[Gal(b1-4)GlcNAc(b1-2)Man(a1-6)][GlcNAc(b1-4)]Man(b1-4)GlcNAc(b1-4)[Fuc(a1-6)]GlcNAc
How it was run: as §1

[26] = molecular target: Gal(b1-4)GlcNAc(b1-2)Man(a1-3)[GlcNAc(b1-2)Man(a1-6)]Man(b1-4)GlcNAc(b1-4)GlcNAc
How it was run: as §1

[27] = molecular target: Gal(b1-4)GlcNAc(b1-2)Man(a1-3)[GlcNAc(b1-4)][Gal(b1-4)GlcNAc(b1-2)Man(a1-6)]Man(b1-4)GlcNAc(b1-4)GlcNAc
How it was run: as §1

[28] = molecular target: Gal(b1-4)GlcNAc(b1-2)Man(a1-3)[Man(a1-6)]Man(b1-4)GlcNAc(b1-4)GlcNAc
How it was run: as §1

[29] = molecular target: Gal(b1-4)GlcNAc(b1-2)Man(a1-6)Man(b1-4)GlcNAc(b1-4)GlcNAc
How it was run: as §1

[30] = molecular target: Gal(b1-4)GlcNAc(b1-2)Man(a1-6)[GlcNAc(b1-2)Man(a1-3)]Man(b1-4)GlcNAc(b1-4)GlcNAc
How it was run: as §1

[31] = molecular target: Gal(b1-4)GlcNAc(b1-2)Man(a1-6)[Man(a1-3)]Man(b1-4)GlcNAc(b1-4)GlcNAc
How it was run: as §1

[32] = molecular target: Gal(b1-4)GlcNAc(b1-2)[Gal(b1-4)GlcNAc(b1-4)]Man(a1-3)[Gal(b1-4)GlcNAc(b1-2)Man(a1-6)]Man(b1-4)GlcNAc(b1-4)GlcNAc
How it was run: as §1

[33] = molecular target: Gal(b1-4)GlcNAc(b1-2)[Gal(b1-4)GlcNAc(b1-4)]Man(a1-3)[Gal(b1-4)GlcNAc(b1-2)[Gal(b1-4)GlcNAc(b1-6)]Man(a1-6)]Man(b1-4)GlcNAc(b1-4)GlcNAc
How it was run: as §1

[34] = molecular target: Gal(b1-4)GlcNAc(b1-2)[Gal(b1-4)GlcNAc(b1-4)]Man(a1-3)[GlcNAc(b1-4)][Gal(b1-4)GlcNAc(b1-2)Man(a1-6)]Man(b1-4)GlcNAc(b1-4)GlcNAc
How it was run: as §1

[35] = molecular target: Gal(b1-4)GlcNAc(b1-2)[Gal(b1-4)GlcNAc(b1-4)]Man(a1-3)[GlcNAc(b1-4)][Gal(b1-4)GlcNAc(b1-2)[Gal(b1-4)GlcNAc(b1-6)]Man(a1-6)]Man(b1-4)GlcNAc(b1-4)GlcNAc
How it was run: as §1

[36] = molecular target: Gal(b1-4)GlcNAc(b1-2)[Gal(b1-4)GlcNAc(b1-6)]Man(a1-6)[Gal(b1-4)GlcNAc(b1-2)Man(a1-3)]Man(b1-4)GlcNAc(b1-4)GlcNAc
How it was run: as §1

[37] = molecular target: Gal(b1-4)GlcNAc(b1-2)[Gal(b1-4)GlcNAc(b1-6)]Man(a1-6)[Gal(b1-4)GlcNAc(b1-2)Man(a1-3)]Man(b1-4)GlcNAc(b1-4)[Fuc(a1-6)]GlcNAc
How it was run: as §1

B1: FliC (Pseudomonas aeruginosa), P72151 (protein)
chain: MALTVNTNIASLNTQRNLNASSNDLNTSLQRLTTGYRINSAKDDAAGLQISNRLSNQISGLNVATRNANDGISLAQTAEGALQQSTNILQRIRDLALQSANGSNSDADRAALQKEVAAQQAELTRISDTTTFGGRKLLDGSFGTTSFQVGSNAYETIDISLQNASASAIGSYQVGSNGAGTVASVAGTATASGIASGTVNLVGGGQVKNIAIAAGDSAKAIAEKMDGAIPNLSARARTVFTADVSGVTGGSLNFDVTVGSNTVSLAGVTSTQDLADQLNSNSSKLGITASINDKGVLTITSATGENVKFGAQTGTATAGQVAVKVQGSDGKFEAAAKNVVAAGTAATTTIVTGYVQLNSPTAYSVSGTGTQASQVFGNASAAQKSSVASVDISTADGAQNAIAVVDNALAAIDAQRADLGAVQNRFKNTIDNLTNISENATNARSRIKDTDFAAETAALSKNQVLQQAGTAILAQANQLPQAVLSLLR
With B1 as the binder, how does the “glycan array binding signal (z-score)” value [1] read?
The value was -0.134.

What about the “glycan array binding signal (z-score)” value [2] of the same binder?
Its value is -0.157.

What about the “glycan array binding signal (z-score)” value [3] of the same binder?
The value was -0.087.

What about the “glycan array binding signal (z-score)” value [4] of the same binder?
Its value is -0.235.

And the “glycan array binding signal (z-score)” value [5]?
Its value is -0.135.

And the “glycan array binding signal (z-score)” value [6]?
Its value is -0.193.

What about the “glycan array binding signal (z-score)” value [7] of the same binder?
Its value is -0.208.

What about the “glycan array binding signal (z-score)” value [8] of the same binder?
The value was -0.106.

And the “glycan array binding signal (z-score)” value [9]?
Its value is 0.274.

And the “glycan array binding signal (z-score)” value [10]?
The value was 0.527.

And the “glycan array binding signal (z-score)” value [11]?
Its value is 0.874.

And the “glycan array binding signal (z-score)” value [12]?
Its value is -0.299.

And the “glycan array binding signal (z-score)” value [13]?
Its value is -0.191.

And the “glycan array binding signal (z-score)” value [14]?
The value was -0.198.

And the “glycan array binding signal (z-score)” value [15]?
The value was -0.165.

What about the “glycan array binding signal (z-score)” value [16] of the same binder?
Its value is -0.2.

And the “glycan array binding signal (z-score)” value [17]?
Its value is -0.138.

And the “glycan array binding signal (z-score)” value [18]?
Its value is -0.16.

What about the “glycan array binding signal (z-score)” value [19] of the same binder?
The value was -0.224.

And the “glycan array binding signal (z-score)” value [20]?
Its value is -0.177.

What about the “glycan array binding signal (z-score)” value [21] of the same binder?
The value was -0.186.

And the “glycan array binding signal (z-score)” value [22]?
The value was -0.104.

And the “glycan array binding signal (z-score)” value [23]?
Its value is -0.117.

What about the “glycan array binding signal (z-score)” value [24] of the same binder?
Its value is -0.227.

What about the “glycan array binding signal (z-score)” value [25] of the same binder?
Its value is -0.194.

And the “glycan array binding signal (z-score)” value [26]?
Its value is -0.133.

What about the “glycan array binding signal (z-score)” value [27] of the same binder?
The value was -0.157.

What about the “glycan array binding signal (z-score)” value [28] of the same binder?
Its value is -0.116.

What about the “glycan array binding signal (z-score)” value [29] of the same binder?
Its value is -0.184.

What about the “glycan array binding signal (z-score)” value [30] of the same binder?
The value was -0.235.

And the “glycan array binding signal (z-score)” value [31]?
Its value is 1.05.

What about the “glycan array binding signal (z-score)” value [32] of the same binder?
Its value is -0.105.

What about the “glycan array binding signal (z-score)” value [33] of the same binder?
The value was -0.194.

What about the “glycan array binding signal (z-score)” value [34] of the same binder?
The value was -0.178.

And the “glycan array binding signal (z-score)” value [35]?
The value was 0.363.

What about the “glycan array binding signal (z-score)” value [36] of the same binder?
The value was -0.022.

What about the “glycan array binding signal (z-score)” value [37] of the same binder?
Its value is 1.27.
